Among the data in the supplement of paper PMC10670038 are relative cell viability values, retold here.

Counter-ions that a name gives are not always drawn. ± gives the standard deviation of the averaged measurements. The full ranking holds about 2,000 compounds; the median of “relative cell viability vs DMSO, compound alone” is about 1.1, and the lowest 2% start at about 0.29. The list shows a part of the results.

This assay has as its system TE10. Kind of assay: relative cell viability vs DMSO, compound alone (fraction); TE10 is an esophageal squamous carcinoma line; higher = less cytotoxic. The note with it: 2 µM; 48 h. The method, then:
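TE10 ESCC cells (1,000/well, 384-well plates) were treated with Selleck bioactive library compounds at 2 uM alone for 48 h. Viability was read by CellTiter-Glo and expressed relative to DMSO wells. Two technical replicates (A, B).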
Take `Cn1nnc(-c2ccc3c(c2)[nH]c2nc(Cc4ccccc4)nc(NC4CCC(N)CC4)c23)n1` (stereo not given): the relative cell viability turned out to be 1.143 ± 0.0065.

Compound `CC(=O)O[C@H]1C[C@@H]2CC[C@@H]3[C@H](CC[C@@]4(C)[C@H]3C[C@H]([N+]3(C)CCCCC3)[C@@H]4OC(C)=O)[C@@]2(C)C[C@@H]1N1CCCCC1` [Vecuronium Bromide] had a relative cell viability of 1.17 ± 0.097.

As for `CC1(C)O[C@@H]2C[C@H]3[C@@H]4CCC5=CC(=O)CC[C@]5(C)[C@@]4(F)[C@@H](O)C[C@]3(C)[C@]2(C(=O)CCl)O1` [Halcinonide], the relative cell viability is 0.816 ± 0.11.

The compound `C[C@]12C=CC(=O)C=C1CC[C@H]1[C@@H]3C[C@@H](O)[C@](O)(C(=O)CO)[C@@]3(C)C[C@H](O)[C@@]12F` [Triamcinolone] returned a relative cell viability of 0.9665 ± 0.0039.

In the case of `N#Cc1ccc(COC[C@H]2O[C@@H](n3c(NCc4ccc(Cl)c(Cl)c4)nc4c(N)ncnc43)[C@H](O)[C@@H]2O)cc1`, the relative cell viability was 0.991 ± 0.04.

Take `C[C@@H]1O[C@@H](OC[C@H]2O[C@@H](Oc3c(-c4ccc(OCCO)c(OCCO)c4)oc4cc(OCCO)cc(O)c4c3=O)[C@H](O)[C@@H](O)[C@@H]2O)[C@H](O)[C@H](O)[C@H]1O` [Troxerutin]: the relative cell viability turned out to be 1.11 ± 0.047.

The compound `CCN(CC)C(=O)/C(C#N)=C/c1cc(O)c(O)c([N+](=O)[O-])c1` [Entacapone] had a relative cell viability of 0.892 ± 0.017.

On to `OC(c1cc(C(F)(F)F)nc2c(C(F)(F)F)cccc12)C1CCCCN1` (stereo not given) [Mefloquine HCl], for which the relative cell viability stood at 1.09 ± 0.11.

Compound `Cc1coc2c1C(=O)C(=O)c1c-2ccc2c1CCCC2(C)C` [Tanshinone IIA] had a relative cell viability of 0.545 ± 0.0096.

`CC[C@H]1OC(=O)C[C@@H](O)[C@H](C)[C@@H](O[C@@H]2O[C@H](C)[C@@H](O)[C@H](N(C)C)[C@H]2O)[C@@H](CCN2C[C@H](C)C[C@H](C)C2)C[C@@H](C)C(=O)/C=C/C(C)=C/[C@@H]1CO[C@@H]1O[C@H](C)[C@@H](O)[C@@H](OC)[C@H]1OC` [Tilmicosin] displayed a relative cell viability of 1 ± 0.039.

`CNCCCC12CCC(c3ccccc31)c1ccccc12` [Maprotiline HCl]: the relative cell viability turned out to be 1.104 ± 0.011.

`CCc1c(O)cc(O)c(C(=O)c2ccc(OCCN3CCOCC3)c(OC)c2)c1CC(=O)N(CCOC)CCOC` displayed a relative cell viability of 0.546 ± 0.009.

On to `CN(C)Cc1cccc(N=C(c2ccccc2)c2c(O)[nH]c3cc(C(=O)N(C)C)ccc23)c1`, for which the relative cell viability came to 0.903 ± 0.035.

Turning to `O=c1cc(-c2ccccc2)oc2cc(O)c(O)c(O)c12` [Baicalein], the relative cell viability came out at 1.04 ± 0.011.

Consider `COc1cc(C2Oc3cc([C@H]4Oc5cc(O)cc(O)c5C(=O)[C@@H]4O)ccc3OC2CO)ccc1O` (stereo not given in full) [Silymarin], for which the relative cell viability was determined as 0.976 ± 0.13.

The compound `COc1cc(C2Oc3cc([C@H]4Oc5cc(O)cc(O)c5C(=O)[C@@H]4O)ccc3OC2CO)ccc1O` (stereo not given in full) [Silibinin] showed a relative cell viability of 1.12 ± 0.017.

Consider `CC(=O)N[C@@H](CS)C(=O)O` [Acetylcysteine], for which the relative cell viability came to 1.03 ± 0.031.

Compound `C[C@]1(c2nc3c(C(N)=O)cccc3[nH]2)CCCN1` [Veliparib (ABT-888)] showed a relative cell viability of 1.02 ± 0.18.

Turning to `O=C(O)Cc1cccc(OCCCN(Cc2cccc(C(F)(F)F)c2Cl)CC(c2ccccc2)c2ccccc2)c1`, the relative cell viability was found to be 1.15 ± 0.052.

`COc1cccc2cc(-c3nc([C@H]4CC[C@H](C(=O)O)CC4)n4ncnc(N)c34)[nH]c12` gave a relative cell viability of 0.667 ± 0.0089.

For `O=C1CCC[C@@H]2[C@H]3CCC[N+]4([O-])CCC[C@@H](CN12)[C@@H]34` (stereo not given in full) [Oxymatrine], the relative cell viability was found to be 0.93 ± 0.12.

`CCN(CC)CCOC(=O)c1ccc(N)cc1` [Procaine HCl] displayed a relative cell viability of 1.16 ± 0.077.

In turn, `Clc1ccc(C(Cn2ccnc2)OCc2ccc(Sc3ccccc3)cc2)c(Cl)c1` (stereo not given) [Fenticonazole Nitrate] returned a relative cell viability of 1.11 ± 0.018.

In turn, `CC[C@H](C)C(=O)O[C@H]1C[C@@H](C)C=C2C=C[C@H](C)[C@H](CC[C@@H]3C[C@@H](O)CC(=O)O3)[C@H]21` [Lovastatin] returned a relative cell viability of 1.09 ± 0.031.

For the compound `CCCCNc1cc(C(=O)O)cc(S(N)(=O)=O)c1Oc1ccccc1` [Bumetanide], the relative cell viability was 1.33 ± 0.021.

With `CC(C)n1c(/C=C/C(O)CC(O)CC(=O)O)c(-c2ccc(F)cc2)c2ccccc21` (stereo not given) [Fluvastatin Sodium], the relative cell viability was 0.964 ± 0.063.

`O=c1ccn([C@@H]2O[C@H](CO)[C@@H](O)[C@H]2O)c(=O)[nH]1` [Uridine] returned a relative cell viability of 1.08 ± 0.059.

Turning to `OC(CC1c2ccccc2-c2cncn21)C1CCCCC1` (stereo not given), the relative cell viability turned out to be 1.13 ± 0.076.

`COc1ccc(C[C@H](N)C(=O)N[C@H]2[C@@H](O)[C@H](n3cnc4c(N(C)C)ncnc43)O[C@@H]2CO)cc1` [Puromycin 2HCl] yielded a relative cell viability of 0.133 ± 0.042.

`NC(=O)OCC(COC(N)=O)c1ccccc1` [Felbamate] yielded a relative cell viability of 1 ± 0.23.

`CCC[S+]([O-])c1ccc2[nH]c(NC(=O)OC)nc2c1` (stereo not given) [Albendazole Oxide] had a relative cell viability of 1 ± 0.051.

On to `Cc1ccnc(NS(=O)(=O)c2ccc(N)cc2)n1` [Sulfamerazine], for which the relative cell viability was found to be 1.18 ± 0.024.

Consider `COC(=O)N[C@H](C(=O)N[C@@H](Cc1ccccc1)[C@@H](O)CN(Cc1ccc(-c2ccccn2)cc1)NC(=O)[C@@H](NC(=O)OC)C(C)(C)C)C(C)(C)C` [Atazanavir Sulfate], for which the relative cell viability amounted to 1.06 ± 0.041.

For the compound `CNC[C@H](O)[C@@H](O)[C@H](O)[C@H](O)CO` [Meglumine], the relative cell viability is 1.008 ± 0.0073.

`COC(=O)Nc1ccc(-c2nc(N3CCOCC3)c3cnn(C4CCN(C(=O)OC)CC4)c3n2)cc1` returned a relative cell viability of 0.844 ± 0.13.

The compound `Cc1c(Nc2ncccc2C(=O)O)cccc1C(F)(F)F` [Flunixin Meglumin] had a relative cell viability of 0.994 ± 0.028.

Take `CC[C@H](c1ccc(O)cc1)[C@@H](CC)c1ccc(O)cc1` [Hexestrol]: the relative cell viability was determined as 1.14 ± 0.017.

The compound `OC[C@@H](O)CN1CCN(c2ccccc2)CC1` [Levodropropizine] had a relative cell viability of 1.15 ± 0.065.

`N#CC1(c2ccc(NC(=O)c3cccnc3NCc3ccncc3)cc2)CCCC1` [Apatinib] returned a relative cell viability of 1.12 ± 0.054.

`CC(ONC(=O)c1cc(C(F)(F)F)cc(C(F)(F)F)c1)C(=O)Nc1ccc(Cl)cc1` (stereo not given) returned a relative cell viability of 1.07 ± 0.024.

Compound `CN1CCN(C(=O)c2cc3cc(Cl)ccc3[nH]2)CC1` registered a relative cell viability of 1.14 ± 0.064.

Consider `CC(=O)OCC(=O)[C@@]1(O)CC[C@H]2[C@@H]3CCC4=CC(=O)C=C[C@]4(C)[C@H]3[C@@H](O)C[C@@]21C` [Prednisolone Acetate], for which the relative cell viability amounted to 0.947 ± 0.074.

`COc1ccc(CNc2nc(N3CCC[C@H]3CO)ncc2C(=O)NCc2ncccn2)cc1Cl` [Avanafil] registered a relative cell viability of 0.954 ± 0.29.

`COC(=O)N[C@H](C(=O)N1CC2(CC2)C[C@H]1c1nc(-c2ccc3c(c2)C(F)(F)c2cc(-c4ccc5[nH]c([C@@H]6[C@H]7CC[C@H](C7)N6C(=O)[C@@H](NC(=O)OC)C(C)C)nc5c4)ccc2-3)c[nH]1)C(C)C` [Ledipasvir (GS5885)]: the relative cell viability was determined as 1.13 ± 0.14.

As for `FC(F)(F)Oc1ccc2nc(-c3ccc(OCCOCCOc4ccc(-c5nc6ccc(OC(F)(F)F)cc6[nH]5)nc4)cn3)[nH]c2c1`, the relative cell viability stood at 0.7346 ± 0.0035.

With `Cn1cnc2c(F)c(Nc3ccc(Br)cc3Cl)c(C(=O)NOCCO)cc21` [Selumetinib (AZD6244)], the relative cell viability was determined as 0.638 ± 0.18.

Turning to `Nc1nc(N)c2nc(-c3cccc(O)c3)c(-c3cccc(O)c3)nc2n1`, the relative cell viability turned out to be 1.02 ± 0.074.

`C[C@H](CS)C(=O)N1CCC[C@H]1C(=O)O` [Captopril] displayed a relative cell viability of 1.08 ± 0.034.

Take `CN(Cc1cc(Br)cc(Br)c1N)C1CCCCC1` [Bromhexine HCl]: the relative cell viability turned out to be 1.09 ± 0.086.

With `NCCc1ccc(O)c(O)c1` [Dopamine HCl], the relative cell viability turned out to be 1.06 ± 0.12.

`CC(C)=CCCC(C)(OC1OC(COC2OCC(O)C(O)C2O)C(O)C(O)C1O)C1CCC2(C)C1C(O)CC1C3(C)CCC(OC4OC(CO)C(O)C(O)C4O)C(C)(C)C3CCC12C` (stereo not given) [Gynostemma Extract]: the relative cell viability is 1.1 ± 0.068.

On to `C[N+](C)(C)CC(O)CC(=O)[O-]` (racemic) [DL-Carnitine HCl], for which the relative cell viability amounted to 0.99 ± 0.15.

In turn, `CCS(=O)(=O)N1CCN(c2ccc(Nc3ncc(C(N)=O)c(NC4CC4)n3)cc2)CC1` gave a relative cell viability of 1.02 ± 0.02.

Turning to `Cn1cnc(=N)c2[nH]cnc21` [3-Methyladenine], the relative cell viability was determined as 1.22 ± 0.019.

`C[N+](C)(C)C[C@H](O)CC(=O)[O-]` [L-carnitine] showed a relative cell viability of 1.04 ± 0.016.

`O=C(c1ccccc1)c1ccc2nc(NC(=O)c3csc(C4CCN(c5ncnc6ccsc56)CC4)n3)[nH]c2c1` had a relative cell viability of 1.17 ± 0.026.

`Cn1c(N2CCCCS2(=O)=O)nc(C(=O)NCc2ccc(F)cc2)c(O)c1=O`: the relative cell viability was 1.157 ± 0.0084.

Turning to `COc1ccc(CCC(=O)Nc2nc3ccc(Cl)cc3s2)cc1OC`, the relative cell viability came out at 1.17 ± 0.035.

On to `C=C1C(=O)O[C@H]2[C@H]1CC/C(C)=C/CC[C@@]1(C)O[C@@H]21` [(-)-Parthenolide], for which the relative cell viability amounted to 0.964 ± 0.014.

In turn, `CCCCOc1ccc(C(=O)CCN2CCCCC2)cc1` [Dyclonine HCl] had a relative cell viability of 1.02 ± 0.021.

Compound `COc1ccc(CCC(=O)c2c(O)cc(O[C@@H]3O[C@H](CO)[C@@H](O)[C@H](O)[C@H]3O[C@@H]3O[C@@H](C)[C@H](O)[C@@H](O)[C@H]3O)cc2O)cc1O` [Neohesperidin dihydrochalcone (Nhdc)] came in with a relative cell viability of 1.12 ± 0.01.

`O=[N+]([O-])c1cn2c(n1)OC[C@@H](OCc1ccc(OC(F)(F)F)cc1)C2` had a relative cell viability of 1.228 ± 0.011.

With `Cn1nnc2c(C(N)=O)ncn2c1=O` [Temozolomide], the relative cell viability turned out to be 1.07 ± 0.092.

The compound `Cc1ccc(C(=O)N(CCCN)[C@@H](c2oc3cc(Cl)ccc3c(=O)c2Cc2ccccc2)C(C)C)cc1` showed a relative cell viability of 0.766 ± 0.026.

`C=CC[N+]1([C@H]2C[C@H]3[C@@H]4CC[C@H]5C[C@H](O)[C@@H](N6CCOCC6)C[C@]5(C)[C@H]4CC[C@]3(C)[C@H]2OC(C)=O)CCCC1` [Rocuronium Bromide] came in with a relative cell viability of 1.184 ± 0.0015.

`Cc1ccc(C(=O)Cn2c3c(sc2=N)CCCC3)cc1` [Pifithrin-α (PFTα)] gave a relative cell viability of 0.951 ± 0.12.

In the case of `CC(C)(C)NC(=O)[C@H]1CC[C@H]2[C@@H]3CC[C@H]4NC(=O)C=C[C@]4(C)[C@H]3CC[C@]12C` [Finasteride], the relative cell viability stood at 1.14 ± 0.041.

Regarding `C=C1CC[C@H](O)C/C1=C/C=C1\CCC[C@]2(C)[C@@H]([C@H](C)/C=C/[C@H](C)C(C)C)CC[C@@H]12` [Vitamin D2], the relative cell viability turned out to be 0.982 ± 0.093.

`Nc1nc(N)c2nc(-c3ccccc3)c(N)nc2n1` [Triamterene] gave a relative cell viability of 0.968 ± 0.026.

`CO[C@H]1C[C@@H]2CC[C@@H](C)[C@@](O)(O2)C(=O)C(=O)N2CCCC[C@H]2C(=O)O[C@H]([C@H](C)C[C@@H]2CC[C@@H](OC(=O)C(C)(CO)CO)[C@H](OC)C2)CC(=O)[C@H](C)/C=C(\C)[C@@H](O)[C@@H](OC)C(=O)[C@H](C)C[C@H](C)/C=C/C=C/C=C/1C` gave a relative cell viability of 0.937 ± 0.045.
